# Measured values reported in article PMC12820563, “FoxP3 forms a head-to-head dimer in vivo and stabilizes its multimerization on adjacent microsatellites”.
# Some of the results follow.
# Molecular target: T1, MBP-FoxP1dN (Mus musculus, UniProt P58462 326-579)
# T1 sequence: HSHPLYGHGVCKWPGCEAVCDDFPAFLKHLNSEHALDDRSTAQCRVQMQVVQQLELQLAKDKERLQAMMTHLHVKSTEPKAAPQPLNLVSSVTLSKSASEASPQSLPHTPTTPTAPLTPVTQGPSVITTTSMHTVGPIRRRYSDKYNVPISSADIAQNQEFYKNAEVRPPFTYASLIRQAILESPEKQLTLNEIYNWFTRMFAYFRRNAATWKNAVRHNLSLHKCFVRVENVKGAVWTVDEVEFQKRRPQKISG
# Assay: PD-seq (MBP pull-down with sequencing); 20 mM Tris-HCl pH 7.5, 100 mM NaCl, 1.5 mM MgCl2, 0.4 uM protein, 0.1 uM dsDNA library, 30 min, room temperature, amylose pull-down; high values mean tight binding
# Conditions: protein: recombinant; tags: His6-MBP; chain copies: 2; dsDNA, one strand shown
# Procedure, shortened: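 Amylose resin was used to capture complexes formed during 30 min at room temperature in Tris pH 7.5 buffer with NaCl and MgCl2 between 0.4 µM His6-MBP-tagged mouse FoxP3 or FoxP1 fragment lacking the N-terminus, expressed in E. coli, and 0.1 µM Klenow-filled double-stranded degenerate DNA library. After three washes, the DNA was released with proteinase K, barcoded by PCR and sequenced on Illumina. Binding is pooled-replicate reads-per-million enrichment, pull-down over input.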
row,Sequence,binding signal
1,GATGATTGTTCTCCCAGCTGATGAATTGAATTTATCGAGTAAACAAATTTTCCTAATCTTTCTGTTCAAGCGCCATCTAC,1.05 RPM ratio (pull-down/input)
2,GATGATTGTTCTCCCAGCTGATGAATTGATCGCTTCGAGTAAACAAATTTTCCTAATCTTTCTGTTCAAGCGCCATCTAC,0.945 RPM ratio (pull-down/input)
3,GATGATTGTTCTCCCAGCTGATGAATTTCCATAGTCGAGTAAACAAATTTTCCTAATCTTTCTGTTCAAGCGCCATCTAC,0.784 RPM ratio (pull-down/input)
4,GATGATTGTTCTCCCAGCTGATGAATTGGTGGGGTCGAGTAAACAAATTTTCCTAATCTTTCTGTTCAAGCGCCATCTAC,0.817 RPM ratio (pull-down/input)
5,GATGATTGTTCTCCCAGCTGATGAATTTTGAATGTCGAGTAAACAAATTTTCCTAATCTTTCTGTTCAAGCGCCATCTAC,0.964 RPM ratio (pull-down/input)
6,GATGATTGTTCTCCCAGCTGATGAATTCCCAACGTCGAGTAAACAAATTTTCCTAATCTTTCTGTTCAAGCGCCATCTAC,0.784 RPM ratio (pull-down/input)
7,GATGATTGTTCTCCCAGCTGATGAATTACGGCGGTCGAGTAAACAAATTTTCCTAATCTTTCTGTTCAAGCGCCATCTAC,0.83 RPM ratio (pull-down/input)
8,GATGATTGTTCTCCCAGCTGATGAATTATAACCTTCGAGTAAACAAATTTTCCTAATCTTTCTGTTCAAGCGCCATCTAC,1.05 RPM ratio (pull-down/input)
9,GATGATTGTTCTCCCAGCTGATGAATTCCCTGGTTCGAGTAAACAAATTTTCCTAATCTTTCTGTTCAAGCGCCATCTAC,0.795 RPM ratio (pull-down/input)
10,GATGATTGTTCTCCCAGCTGATGAATTGCACCGTTCGAGTAAACAAATTTTCCTAATCTTTCTGTTCAAGCGCCATCTAC,1.1 RPM ratio (pull-down/input)
11,GATGATTGTTCTCCCAGCTGATGAATTAGCTAACTCGAGTAAACAAATTTTCCTAATCTTTCTGTTCAAGCGCCATCTAC,0.866 RPM ratio (pull-down/input)
12,GATGATTGTTCTCCCAGCTGATGAATTGGTGCGGTCGAGTAAACAAATTTTCCTAATCTTTCTGTTCAAGCGCCATCTAC,0.845 RPM ratio (pull-down/input)
13,GATGATTGTTCTCCCAGCTGATGAATTTGCAATATCGAGTAAACAAATTTTCCTAATCTTTCTGTTCAAGCGCCATCTAC,1.34 RPM ratio (pull-down/input)
14,GATGATTGTTCTCCCAGCTGATGAATTTAGAGAGTCGAGTAAACAAATTTTCCTAATCTTTCTGTTCAAGCGCCATCTAC,0.988 RPM ratio (pull-down/input)
15,GATGATTGTTCTCCCAGCTGATGAATTGTAGTGATCGAGTAAACAAATTTTCCTAATCTTTCTGTTCAAGCGCCATCTAC,1.15 RPM ratio (pull-down/input)
16,GATGATTGTTCTCCCAGCTGATGAATTTACGTGCTCGAGTAAACAAATTTTCCTAATCTTTCTGTTCAAGCGCCATCTAC,1.12 RPM ratio (pull-down/input)

row,Sequence,binding signal
1,GATGATTGTTCTCCCAGCTGATGAATTGAAGACTTCGAGTAAACAAATTTTCCTAATCTTTCTGTTCAAGCGCCATCTAC,0.809 RPM ratio (pull-down/input)
2,GATGATTGTTCTCCCAGCTGATGAATTTCTAATCTCGAGTAAACAAATTTTCCTAATCTTTCTGTTCAAGCGCCATCTAC,0.82 RPM ratio (pull-down/input)
3,GATGATTGTTCTCCCAGCTGATGAATTCCCCAGCTCGAGTAAACAAATTTTCCTAATCTTTCTGTTCAAGCGCCATCTAC,0.738 RPM ratio (pull-down/input)
4,GATGATTGTTCTCCCAGCTGATGAATTTAGAGCTTCGAGTAAACAAATTTTCCTAATCTTTCTGTTCAAGCGCCATCTAC,0.869 RPM ratio (pull-down/input)
5,GATGATTGTTCTCCCAGCTGATGAATTCAACGCCTCGAGTAAACAAATTTTCCTAATCTTTCTGTTCAAGCGCCATCTAC,0.907 RPM ratio (pull-down/input)
6,GATGATTGTTCTCCCAGCTGATGAATTGGGTGCCTCGAGTAAACAAATTTTCCTAATCTTTCTGTTCAAGCGCCATCTAC,0.905 RPM ratio (pull-down/input)
7,GATGATTGTTCTCCCAGCTGATGAATTTCTTGTCTCGAGTAAACAAATTTTCCTAATCTTTCTGTTCAAGCGCCATCTAC,0.875 RPM ratio (pull-down/input)
8,GATGATTGTTCTCCCAGCTGATGAATTAATACTATCGAGTAAACAAATTTTCCTAATCTTTCTGTTCAAGCGCCATCTAC,1.09 RPM ratio (pull-down/input)
9,GATGATTGTTCTCCCAGCTGATGAATTATACTATTCGAGTAAACAAATTTTCCTAATCTTTCTGTTCAAGCGCCATCTAC,1.07 RPM ratio (pull-down/input)
10,GATGATTGTTCTCCCAGCTGATGAATTCGTAGACTCGAGTAAACAAATTTTCCTAATCTTTCTGTTCAAGCGCCATCTAC,0.816 RPM ratio (pull-down/input)
11,GATGATTGTTCTCCCAGCTGATGAATTACTGACGTCGAGTAAACAAATTTTCCTAATCTTTCTGTTCAAGCGCCATCTAC,1.02 RPM ratio (pull-down/input)
12,GATGATTGTTCTCCCAGCTGATGAATTGACATAGTCGAGTAAACAAATTTTCCTAATCTTTCTGTTCAAGCGCCATCTAC,1.25 RPM ratio (pull-down/input)
13,GATGATTGTTCTCCCAGCTGATGAATTATAGTGATCGAGTAAACAAATTTTCCTAATCTTTCTGTTCAAGCGCCATCTAC,1.04 RPM ratio (pull-down/input)
14,GATGATTGTTCTCCCAGCTGATGAATTTCCTAGATCGAGTAAACAAATTTTCCTAATCTTTCTGTTCAAGCGCCATCTAC,0.852 RPM ratio (pull-down/input)
15,GATGATTGTTCTCCCAGCTGATGAATTTTCGCCATCGAGTAAACAAATTTTCCTAATCTTTCTGTTCAAGCGCCATCTAC,1.05 RPM ratio (pull-down/input)
